According to the supplement of paper PMC8728848:
The other results are listed elsewhere or left out.

Key:
Assay in all cases: glycan array binding signal (z-score within array); higher = stronger binding
Conditions in all cases: glycan notation: IUPAC condensed, linker removed
[1] = biological target: Fuc(a1-2)[Gal(a1-3)]Gal(b1-4)Glc
Outline: (§1)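 Glycan array data came from 3228 arrays in the Consortium for Functional Glycomics database, and only arrays with an available protein sequence were kept. Glycan names were put into IUPAC-condensed notation, and columns mapping to the same glycan were averaged. The binding signal is a within-array Z-score, averaged across arrays of one protein sequence run at different concentrations or buffers and across linkers. A negative Z-score can be read as non-binding.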

[2] = biological target: Fuc(a1-2)[Gal(a1-3)]Gal(b1-4)GlcNAc
Outline: as §1

[3] = biological target: Fuc(a1-2)[Gal(a1-3)]Gal(b1-4)GlcNAc(b1-2)Man(a1-3)[Fuc(a1-2)[Gal(a1-3)]Gal(b1-4)GlcNAc(b1-2)Man(a1-6)]Man(b1-4)GlcNAc(b1-4)GlcNAc
Outline: as §1

[4] = biological target: Fuc(a1-2)[Gal(a1-3)]Gal(b1-4)GlcNAc(b1-2)Man(a1-3)[Fuc(a1-2)[Gal(a1-3)]Gal(b1-4)GlcNAc(b1-2)Man(a1-6)]Man(b1-4)GlcNAc(b1-4)[Fuc(a1-6)]GlcNAc
Outline: as §1

[5] = biological target: Fuc(a1-2)[Gal(a1-3)]Gal(b1-4)GlcNAc(b1-3)GalNAc
Outline: as §1

[6] = biological target: Fuc(a1-2)[Gal(a1-3)]Gal(b1-4)[Fuc(a1-3)]Glc
Outline: as §1

[7] = biological target: Fuc(a1-2)[Gal(a1-3)]Gal(b1-4)[Fuc(a1-3)]GlcNAc
Outline: as §1

[8] = biological target: Fuc(a1-2)[Gal(a1-3)]Gal(b1-4)[Fuc(a1-3)]GlcNAc(b1-3)GalNAc
Outline: as §1

[9] = biological target: Fuc(a1-2)[Gal(a1-4)]Gal(b1-4)GlcNAc
Outline: as §1

[10] = biological target: Fuc(a1-2)[GalNAc(a1-3)]Gal
Outline: as §1

[11] = biological target: Fuc(a1-2)[GalNAc(a1-3)]Gal(b1-3)GalNAc(a1-3)[Fuc(a1-2)]Gal(b1-4)GlcNAc
Outline: as §1

[12] = biological target: Fuc(a1-2)[GalNAc(a1-3)]Gal(b1-3)GlcNAc
Outline: as §1

[13] = biological target: Fuc(a1-2)[GalNAc(a1-3)]Gal(b1-3)GlcNAc(b1-2)Man(a1-3)[Fuc(a1-2)[GalNAc(a1-3)]Gal(b1-3)GlcNAc(b1-2)Man(a1-6)]Man(b1-4)GlcNAc(b1-4)GlcNAc
Outline: as §1

[14] = biological target: Fuc(a1-2)[GalNAc(a1-3)]Gal(b1-3)GlcNAc(b1-2)Man(a1-3)[Fuc(a1-2)[GalNAc(a1-3)]Gal(b1-3)GlcNAc(b1-2)Man(a1-6)]Man(b1-4)GlcNAc(b1-4)[Fuc(a1-6)]GlcNAc
Outline: as §1

[15] = biological target: Fuc(a1-2)[GalNAc(a1-3)]Gal(b1-3)GlcNAc(b1-3)GalNAc
Outline: as §1

[16] = biological target: Fuc(a1-2)[GalNAc(a1-3)]Gal(b1-4)Glc
Outline: as §1

[17] = biological target: Fuc(a1-2)[GalNAc(a1-3)]Gal(b1-4)GlcNAc
Outline: as §1

[18] = biological target: Fuc(a1-2)[GalNAc(a1-3)]Gal(b1-4)GlcNAc(b1-2)Man(a1-3)[Fuc(a1-2)[GalNAc(a1-3)]Gal(b1-4)GlcNAc(b1-2)Man(a1-6)]Man(b1-4)GlcNAc(b1-4)GlcNAc
Outline: as §1

[19] = biological target: Fuc(a1-2)[GalNAc(a1-3)]Gal(b1-4)GlcNAc(b1-2)Man(a1-3)[Fuc(a1-2)[GalNAc(a1-3)]Gal(b1-4)GlcNAc(b1-2)Man(a1-6)]Man(b1-4)GlcNAc(b1-4)[Fuc(a1-6)]GlcNAc
Outline: as §1

[20] = biological target: Fuc(a1-2)[GalNAc(a1-3)]Gal(b1-4)GlcNAc(b1-3)Gal(b1-4)GlcNAc
Outline: as §1

[21] = biological target: Fuc(a1-2)[GalNAc(a1-3)]Gal(b1-4)GlcNAc(b1-3)Gal(b1-4)GlcNAc(b1-3)Gal(b1-4)GlcNAc
Outline: as §1

[22] = biological target: Fuc(a1-2)[GalNAc(a1-3)]Gal(b1-4)GlcNAc(b1-3)GalNAc
Outline: as §1

[23] = biological target: Fuc(a1-2)[GalNAc(a1-3)]Gal(b1-4)[Fuc(a1-3)]GlcNAc
Outline: as §1

[24] = biological target: Fuc(a1-2)[GalNAc(a1-3)]Gal(b1-4)[Fuc(a1-3)]GlcNAc(b1-3)GalNAc
Outline: as §1

[25] = biological target: Fuc(a1-2)[GalNAc(a1-4)]Gal(b1-4)GlcNAc
Outline: as §1

[26] = biological target: Fuc(a1-2)[GalNAc(b1-3)]Gal
Outline: as §1

[27] = biological target: Fuc(a1-3)GlcNAc
Outline: as §1

[28] = biological target: Fuc(a1-3)[Gal(b1-4)]Glc6S
Outline: as §1

[29] = biological target: Fuc(a1-3)[Gal(b1-4)]GlcNAc
Outline: as §1

[30] = biological target: Fuc(a1-3)[Gal(b1-4)]GlcNAc(b1-2)Man(a1-3)[Fuc(a1-3)[Gal(b1-4)]GlcNAc(b1-2)Man(a1-6)]Man(b1-4)GlcNAc(b1-4)GlcNAc
Outline: as §1

[31] = biological target: Fuc(a1-3)[Gal(b1-4)]GlcNAc(b1-2)Man(a1-3)[Fuc(a1-3)[Gal(b1-4)]GlcNAc(b1-2)Man(a1-6)]Man(b1-4)GlcNAc(b1-4)[Fuc(a1-6)]GlcNAc
Outline: as §1

[32] = biological target: Fuc(a1-3)[Gal(b1-4)]GlcNAc(b1-3)Gal(b1-3)[Fuc(a1-4)]GlcNAc
Outline: as §1

[33] = biological target: Fuc(a1-3)[Gal(b1-4)]GlcNAc(b1-3)GalNAc
Outline: as §1

[34] = biological target: Fuc(a1-3)[Gal(b1-4)]GlcNAc(b1-4)Gal(b1-4)[Fuc(a1-3)]GlcNAc
Outline: as §1

[35] = biological target: Fuc(a1-3)[Gal(b1-4)]GlcNAc(b1-4)Gal(b1-4)[Fuc(a1-3)]GlcNAc(b1-4)Gal(b1-4)[Fuc(a1-3)]GlcNAc
Outline: as §1

[36] = biological target: Fuc(a1-3)[Gal(b1-4)]GlcNAc(b1-6)GalNAc
Outline: as §1

[37] = biological target: Fuc(a1-3)[Gal(b1-4)]GlcNAc(b1-6)[Gal(b1-3)GlcNAc(b1-3)]Gal(b1-4)Glc
Outline: as §1

[38] = biological target: Fuc(a1-3)[Gal(b1-4)]GlcNAc(b1-6)[Neu5Ac(a2-3)Gal(b1-3)]GalNAc
Outline: as §1

[39] = biological target: Fuc(a1-3)[Gal(b1-4)]GlcNAc6S
Outline: as §1

[40] = biological target: Fuc(a1-3)[Gal3S(b1-4)]GlcNAc
Outline: as §1

[41] = biological target: Fuc(a1-3)[Gal3S(b1-4)]GlcNAc6S
Outline: as §1

[42] = biological target: Fuc(a1-3)[GalNAc(b1-4)]GlcNAc
Outline: as §1

[43] = biological target: Fuc(a1-4)GlcNAc
Outline: as §1

[44] = biological target: Fuc(b1-3)GlcNAc
Outline: as §1

[45] = biological target: Gal(a1-2)Gal
Outline: as §1

B1: 3FTT (Staphylococcus aureus), Q5HCZ5 (protein)
chain: MTEKEKMLAEKWYDANFDQYLINERARAKDICFELNHTRPSATNKRKELIDQLFQTTTDNVSISIPFDTDYGWNVKLGKNVYVNTNCYFMDGGQITIGDNVFIGPNCGFYTATHPLNFHHRNEGFEKAGPIHIGSNTWFGGHVAVLPGVTIGEGSVIGAGSVVTKDIPPHSLAVGNPCKVVRKIDNDLPSETLNDETIK
- glycan array binding signal (z-score) [1]: -0.286
- glycan array binding signal (z-score) [2]: -0.003
- glycan array binding signal (z-score) [3]: -0.112
- glycan array binding signal (z-score) [4]: 0.105
- glycan array binding signal (z-score) [5]: -0.06
- glycan array binding signal (z-score) [6]: -0.224
- glycan array binding signal (z-score) [7]: -0.178
- glycan array binding signal (z-score) [8]: 0.139
- glycan array binding signal (z-score) [9]: -0.111
- glycan array binding signal (z-score) [10]: -0.204
- glycan array binding signal (z-score) [11]: -0.397
- glycan array binding signal (z-score) [12]: -0.204
- glycan array binding signal (z-score) [13]: 0.032
- glycan array binding signal (z-score) [14]: 0.227
- glycan array binding signal (z-score) [15]: 0.255
- glycan array binding signal (z-score) [16]: -0.111
- glycan array binding signal (z-score) [17]: -0.197
- glycan array binding signal (z-score) [18]: -0.105
- glycan array binding signal (z-score) [19]: -0.028
- glycan array binding signal (z-score) [20]: -0.09
- glycan array binding signal (z-score) [21]: 0.147
- glycan array binding signal (z-score) [22]: -0.098
- glycan array binding signal (z-score) [23]: 0.307
- glycan array binding signal (z-score) [24]: 0.044
- glycan array binding signal (z-score) [25]: -0.204
- glycan array binding signal (z-score) [26]: 0.173
- glycan array binding signal (z-score) [27]: -0.029
- glycan array binding signal (z-score) [28]: -0.183
- glycan array binding signal (z-score) [29]: -0.033
- glycan array binding signal (z-score) [30]: -0.062
- glycan array binding signal (z-score) [31]: 0.132
- glycan array binding signal (z-score) [32]: -0.197
- glycan array binding signal (z-score) [33]: 0.04
- glycan array binding signal (z-score) [34]: -0.153
- glycan array binding signal (z-score) [35]: -0.017
- glycan array binding signal (z-score) [36]: 0.714
- glycan array binding signal (z-score) [37]: -0.271
- glycan array binding signal (z-score) [38]: -0.148
- glycan array binding signal (z-score) [39]: -0.031
- glycan array binding signal (z-score) [40]: -0.152
- glycan array binding signal (z-score) [41]: -0.029
- glycan array binding signal (z-score) [42]: -0.004
- glycan array binding signal (z-score) [43]: -0.229
- glycan array binding signal (z-score) [44]: -0.015
- glycan array binding signal (z-score) [45]: -0.132
